Results taken from PubChem BioAssay AID1963576 (National Center for Advancing Translational Sciences (NCATS), 2024).
The campaign covered roughly 46,000 compounds. About 60 (0.1%) were called active. Another 3% or so got no clear call; they are omitted. Calls follow the shape of the dose curve; as a rule, active = well fitted inhibition curve with a large enough effect; inconclusive = small, poorly fitted or top-dose-only effect; inactive = no such curve, though single readings can be large or run the other way. Some of the results follow.

Experiment: Primary qHTS assay for Inhibitors of ovarian cancer metastasis using an organotypic tumor microenvironment (TME) model. Also: nearly all actives have a fitted effect of over 65% in size.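 As to activity change, negative = inhibition: plate controls were DMSO wells for no effect and tomatine positive control wells for full effect.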
Settings: SKOV3ip1-GFP adhesion/invasion on 3D omental model, fluorescence; series mostly up to 45.8 µM; activity change, negative = inhibition: at the top concentration
Outline: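 Adhesion/invasion was scored as fixed GFP-labeled SKOV3ip1 cell counts (488/509 nm), normalized to DMSO and tomatine controls. Cancer cells in serum-free medium, with four compound doses (0.36-46 umol/L), sat 2 hr at RT then 16 hr at 37 C on a 48 hr fibroblast/mesothelial/ECM culture.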

outcome, inactive:
COc1ccc(NC(=O)Nc2cccc(C)n2)c(OC)c1
Nc1c(C(=O)Nc2ccccc2Cl)nnn1Cc1cccc(Cl)c1
COc1cc(OC)cc(-c2nc3nc(C)c(CCC(=O)Nc4ccc(C)cc4)c(C)n3n2)c1
Cc1ccc(-n2ncc3c(N4CCC(C)CC4)ncnc32)cc1C
CCOc1ccc2cc(-c3nnc(Nc4ccccc4F)s3)c(=O)oc2c1
CCN(CC)S(=O)(=O)c1ccc2nc(NC(=O)c3ccc(Br)o3)sc2c1
CCC1CCc2c(sc(NC(=O)C3c4ccccc4Oc4ccccc43)c2C#N)C1 (configuration not stated)
Cc1ccc(CCNC(=O)c2cc3sccc3n2Cc2ccc(Cl)cc2)cc1
Cc1ccc2c(c1)c1c(c(=O)n(-c3ccccc3)c(=O)n1CC(=O)NCCC1=CCCCC1)n2C
CCC(C)NC(=O)c1ccccc1NC(=O)C1CCN(S(=O)(=O)Cc2ccccc2)CC1 (configuration not stated)
O=C(c1ccc2c(c1)OCCO2)N(Cc1cccnc1)c1nc2ccc(Cl)cc2s1
Cc1coc2c1c(C)cc1oc(=O)c(CC(=O)NCc3ccc(Cl)cc3)c(C)c12

Activity change, negative = inhibition, inactive:
CCNc1nc2c(c(=O)n(C)c(=O)n2C)n1CC(O)COc1ccccc1 (configuration not stated) 0.146%
COC(=O)c1cc(NC(=O)c2cnc(SC)nc2-c2ccccc2)cc(C(=O)OC)c1 1.63%
Cc1ccc(NCc2nc3ccccc3n2CCOc2ccccc2C)cc1 -3.87%
Cc1cccc(-c2noc(CNC(=O)c3ccc(C)cc3C)n2)c1 -9.73%
O=C(NCc1cccc(Br)c1)c1ccc(-n2cnc3cccnc32)cc1 29.5%
Cc1ccc(-c2cnc(NCc3ccc(C(C)C)cc3)n2C)cc1 -7.33%
Cc1ccc(CNC(=O)COCc2cc(-c3ccc4c(c3)OCO4)on2)cc1 -5.19%
CCOc1ccc(S(=O)(=O)c2cn(Cc3ccc(C)cc3)c3ccc(OC)cc3c2=O)cc1 -4.29%
Cc1ccc(Cl)cc1N1CCN(C(=O)c2cn(C)c3ccc(S(=O)(=O)N4CCC(C)CC4)cc3c2=O)CC1 -5.31%
COc1ccc(NCc2nc3ccccc3n2CCOc2ccc(C)cc2)cc1 -12.9%
CCCOc1ccc(C(=O)N(Cc2cccs2)C2CCS(=O)(=O)C2)cc1 (configuration not stated) 14.8%
O=C(NCC(c1ccc(Cl)cc1)N1CCCCC1)c1ccccc1 (configuration not stated) 7.17%
CCN(CC)c1ccc(C(=O)N2CCC(c3ccncc3)CC2)cc1 -11.3%
O=C(Nc1nc2ccc(Cl)cc2s1)c1ccc(S(=O)(=O)N2CCCC2)cc1 1.96%
CCOc1cccc(C2c3[nH]c4ccccc4c3CCN2C(=O)CCc2ccccc2)c1 (configuration not stated) 6.35%
Cc1cccc(NC(=O)C2CCCN(c3nnc(-n4c(C)ccc4C)s3)C2)c1C (configuration not stated) -21.2%
CCOC(=O)c1nc(Nc2ccccc2C)c2ccccc2n1 0.159%
O=C(NCc1noc2ccccc12)Nc1ccc(F)cc1F -15.3%
CCc1ccc(S(=O)(=O)c2cn(C)c3cc(OC)c(OC)cc3c2=O)cc1 -1.59%
CC(C)c1ccc(NC(=O)CN2C(=O)c3cccc4cccc2c34)cc1 -6.82%
CCCN(C(=O)Cn1c(=O)oc2cc(Cl)ccc21)c1ccc(C(C)C)cc1 3.06%
CC1CC2C3CCC4=CC(=O)C=C[C@]4(C)[C@@]3(F)[C@@H](O)C[C@]2(C)[C@@]1(O)C(=O)CO (some centres not stated) 25.6%
COc1ccc(C)cc1NC(=O)CN1C(=O)COc2ccc(S(=O)(=O)N3CCCCCC3)cc21 6.87%
CCOC(=O)C1CCCN(C(=O)c2ccc3c(c2)N(Cc2cccc(Cl)c2)C(=O)c2ccccc2S3(=O)=O)C1 (configuration not stated) 7.11%
CCOC(=O)c1ccc(Nc2nc(C(=O)OCC)nc3ccccc23)cc1 -0.921%
O=C(CN1C(=O)COc2ccc(S(=O)(=O)N3CCCCC3)cc21)NCc1ccccc1Cl -2.4%
Cc1cc(Nc2cc(Cl)ccc2C)n2nc(Cc3ccccc3)nc2n1 -4.92%
Cc1ccc(C)c(CN2C(=O)c3ccccc3S(=O)(=O)c3ccc(C(=O)N4CCN(C)CC4)cc32)c1 -2.2%
Cc1cc(C)c(S(=O)(=O)NCC(c2ccc(N(C)C)cc2)N2CCc3ccccc32)c(C)c1 (configuration not stated) -8.28%
COc1ccc(CNC(=O)Cc2coc3ccc(C(C)C)cc23)cc1 5.42%
CCOc1ccccc1CNC(=O)CSc1n[nH]c(-c2ccccc2Cl)n1 -9.88%
COc1ccc(-c2nnc(SCC(=O)Oc3cccc(C)c3C)o2)cc1 -8.54%
COc1ccccc1NC(=O)CSc1oc(-c2ccco2)nc1S(=O)(=O)c1ccc(Br)cc1 0.396%
Cc1cc(OCCn2cc(C(=O)c3ccco3)c3ccccc32)ccc1Cl 0.735%
COc1cccc(CNC(=O)CCc2nc(-c3ccc(C)cc3)no2)c1 -8.16%
Cc1nn(CC(=O)NCc2cccc(F)c2)c(=O)c2c(C)n(-c3ccc(Cl)cc3)nc12 -7.51%
COc1ccccc1Oc1nc2c(C)cccn2c(=O)c1/C=C(\C#N)c1nc2ccccc2[nH]1 -0.0612%
CCOC(=O)c1cc(-c2ccc(C)cc2)n(CC(=O)Nc2ccc(OC)c(Cl)c2)c1C -0.395%
CC1CN(C(=O)CCC(=O)NCc2cccs2)c2cc(Cl)ccc2O1 (configuration not stated) -10.3%
COc1ccc(N(C(=O)c2ccccc2C)S(=O)(=O)c2ccc(C)cc2)cc1 1.28%
CCOC(=O)C1=C(CN2CCN(c3cc(C)ccc3C)CC2)NC(=O)NC1c1ccccc1 (configuration not stated) -12%
COc1ccc2nc(N(Cc3cccnc3)C(=O)c3ccco3)sc2c1 -25.6%
COc1ccc(-n2cc(C(=O)NCc3ccc(Cl)cc3)c3ccccc3c2=O)cc1 -0.642%
Cc1ccc(-c2nnn(CC(=O)N(CC(=O)NCCC(C)C)c3ccc(F)cc3)n2)cc1 -9.29%
COc1ccccc1N1CCN(S(=O)(=O)c2cc(-c3cc(C)no3)ccc2C)CC1 -6.49%
CCc1ccc2oc(C(=O)NCCc3ccc(OC)c(OC)c3)cc(=O)c2c1 -1.95%
COc1cccc(CN2C(=O)C3(SCC(=O)N3c3cc(C)cc(C)c3)c3ccccc32)c1 (configuration not stated) -0.146%
Cc1ccc2nc(-c3c[nH]c4ccccc34)c(Nc3ccccc3)n2c1 -4.89%
O=C(NCCc1ccc(F)cc1)C(=O)NCC(c1ccc2c(c1)OCO2)N1CCOCC1 (configuration not stated) -1.62%
COc1ccc(S(=O)(=O)Nc2cc(-c3cn4cccc(C)c4n3)ccc2C)cc1C -1.25%
